Assay results reported in publication PMC5770238 (Science (New York, N.Y.), 2017).

Target: the molecule itself
Assay: cryo-EM structure

Protein | stoichiometry N | binding result
Hsp104 N728A (sensor 1 ATPase mutant in NBD2) (enzyme) not shown | 6 | 
Hsp104 T317A (sensor 1 ATPase mutant in NBD1) (enzyme) not shown |  | binds
